Hit rate of the full screen: of about 310,000 compounds, about 14,000 (4.5%) showed an effect of 50% or more. The effect is printed as a negative number. Some of the results follow.
target: human ether-à-go-go-related gene (hERG) potassium channel (human, UniProt Q12809); experiment: primary screen, population patch clamp on CHO cells stably expressing hERG
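Further: peak tail current of the secondary pulse compared with the same well before compound.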

human ether-à-go-go-related gene (hERG) potassium channel, sequence (Q12809 whole entry, looked up): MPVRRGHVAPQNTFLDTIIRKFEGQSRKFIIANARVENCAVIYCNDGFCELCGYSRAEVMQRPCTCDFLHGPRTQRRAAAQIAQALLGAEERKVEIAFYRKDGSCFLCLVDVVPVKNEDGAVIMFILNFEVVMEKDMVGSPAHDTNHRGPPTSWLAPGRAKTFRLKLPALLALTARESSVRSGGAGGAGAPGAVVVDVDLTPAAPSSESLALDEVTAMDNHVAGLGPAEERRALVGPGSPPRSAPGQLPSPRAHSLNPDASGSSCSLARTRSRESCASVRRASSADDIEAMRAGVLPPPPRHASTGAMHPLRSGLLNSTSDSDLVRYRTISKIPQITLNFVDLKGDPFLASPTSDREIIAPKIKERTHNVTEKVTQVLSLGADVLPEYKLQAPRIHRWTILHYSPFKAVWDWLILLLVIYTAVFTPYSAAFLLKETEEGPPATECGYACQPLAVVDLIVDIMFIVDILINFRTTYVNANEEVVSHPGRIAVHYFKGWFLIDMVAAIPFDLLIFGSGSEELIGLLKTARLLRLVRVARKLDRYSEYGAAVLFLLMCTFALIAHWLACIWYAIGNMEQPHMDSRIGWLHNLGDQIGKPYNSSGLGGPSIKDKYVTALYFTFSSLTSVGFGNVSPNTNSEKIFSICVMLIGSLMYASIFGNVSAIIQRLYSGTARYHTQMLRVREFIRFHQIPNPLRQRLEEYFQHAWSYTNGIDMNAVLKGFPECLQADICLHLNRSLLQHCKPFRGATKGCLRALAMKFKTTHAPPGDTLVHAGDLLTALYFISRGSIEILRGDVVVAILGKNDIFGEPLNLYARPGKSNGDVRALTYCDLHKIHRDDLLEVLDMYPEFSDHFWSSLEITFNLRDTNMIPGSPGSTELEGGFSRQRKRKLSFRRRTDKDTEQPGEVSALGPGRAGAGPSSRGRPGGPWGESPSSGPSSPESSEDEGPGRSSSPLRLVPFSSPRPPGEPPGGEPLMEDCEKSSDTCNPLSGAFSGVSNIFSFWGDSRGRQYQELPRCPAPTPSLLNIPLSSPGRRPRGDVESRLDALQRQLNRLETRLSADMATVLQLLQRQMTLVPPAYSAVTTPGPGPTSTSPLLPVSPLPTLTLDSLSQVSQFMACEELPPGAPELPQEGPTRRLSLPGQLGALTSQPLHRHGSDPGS

Structure (SMILES) | hERG current change (%, negative = inhibition) at 10uM [%]
Brc1ccc2[nH]ncc2c1 | 2.52
COc1ccc(N/C=C\C(=O)c2ccc(Br)cc2)cc1OC | 2.41
CCN1CCN(c2cc(C)c3cc(NC(=O)c4cnccn4)ccc3n2)CC1 | -16.2
Cc1ccccc1C(NC(N)=O)c1ccccc1 (centres unmarked) | 0.289
CCC(SCC(=O)OC)C(=O)Nc1nnc(C(C)C)s1 (centres unmarked) | 5.78
COc1ccccc1CNC(=O)Cn1nc(C)c([N+](=O)[O-])c1C | 16.7
CC1=C(C)CC(C(=O)NNC(=O)c2csc3c2CCC(C(C)(C)C)C3)C(C(=O)O)C1 (centres unmarked) | 10.9
COc1ccccc1OCCSc1nnc(CNC(=O)c2ccco2)n1C | 21.8
CCOc1ccc(NC(=O)c2cc3cc4ccc(C)cc4nc3o2)cc1 | 20.6
Cc1cc(C)nc(SCCN2CCCCC2)n1 | 10.5
CC(=O)C1=C(c2ccccc2)NC(=O)NC1c1ccccc1 (centres unmarked) | 10.9
O=c1c2ccccc2ncn1-c1ccc2c(c1)OCCO2 | -4.29
Cc1ccc(CC2CC(=O)N(c3ccc(Cl)cn3)C2=O)cc1 (centres unmarked) | -2.53
COCC(C)NC(=O)c1oc2c(c1C)C1(CCC2)SCCS1 (centres unmarked) | -7.04
CCC(Sc1ccccc1C(=O)O)C(=O)O (centres unmarked) | 20.8
CCOC(=O)c1ccc2c(c1)N(C)C(=O)c1ccccc1S2 | 13.5
CCCc1cc(=O)oc2c3c(cc(OCC(=O)NCCN4CCOCC4)c12)OC(C)(C)CC3 | -18.3
COc1ccccc1C(=O)NCCC(=O)NCc1cccs1 | 1.11
C/C(=N\NC(=O)c1cccnc1)c1ccc(C)c([N+](=O)[O-])c1 | -7.18
CCCCn1nnc(NC(=O)c2ccc(-c3ccccc3[N+](=O)[O-])o2)n1 | -14.2
COCc1nnc(NC(=O)CCC2CCCCC2)s1 | 6.48
Cc1ccccc1NC(=O)CN1C(=O)S/C(=C/c2cccnc2)C1=O | 14.6
COc1ccc(CCNC(=O)/C(=C/c2cccnc2)NC(=O)c2ccccc2)cc1OC | -3.35

Structure (SMILES) | hERG current change (%, negative = inhibition) at 10uM [%]
Cc1sc(NC(=O)CSc2nnnn2C(C)C)c(C#N)c1C | 7.38
Cl.NCCCC(N)(C(=O)O)C(F)F (centres unmarked) | 15.6
FC(F)c1nnc2ccc(Cl)nn12 | 48.9
COc1cccc(C(=O)Nc2ccccc2F)c1 | 8.37
O=c1c(NCCc2ccccc2)c(-c2ccccc2)c1=O | 26
CCN(CC)S(=O)(=O)c1ccc2oc(C(=O)O)c(C)c2c1 | -0.769
O=C(COc1ccc(Cl)cc1)NCc1nnc(SCC(=O)N2CCCC2)o1 | -3.79
CC(=O)Nc1ccc(C(=O)CN2C(=O)CSC2=O)cc1 | 1.3
CN(CC(=O)Nc1ccc(Cl)c(C(F)(F)F)c1)C(=O)/C=C/c1cccs1 | 10.6
CC1CCCCC1NC(=O)/C=C/c1nc2ccccc2s1 (centres unmarked) | -3.45
CC(=O)c1ccc(NC(=O)CCn2c(=S)oc3ccccc32)cc1 | 12.7
CCOC(=O)c1c(C)n(C)c2ccc(O)c(CN(C)C)c12.O=C(O)C(=O)O | -6.82
COc1ccc2c(-c3ccccc3)cc(SCC(=O)N(C)C)nc2c1 | -22.9
CC(=O)c1nn(-c2ccc(Cl)cc2)c(=O)[nH]c1=O | -30.7
CCOc1ccc(S(=O)(=O)n2c([N+](=O)[O-])cnc2C)c(C)c1C.O=C(O)C(=O)O | -8.84
COc1ccc(-c2nc3c(c(=O)[nH]c(=O)n3Cc3ccccc3)n2Cc2ccccc2)cc1 | -29.7
CCC(C)NCCOCCOc1ccc(F)cc1.O=C(O)C(=O)O (centres unmarked) | -9.21
CCc1ccc(-c2cc(C)no2)cc1S(=O)(=O)Nc1cc(C)ccn1 | 21.7
O=c1c2ccccc2nc2n1-c1ccccc1CCC2 | -0.695
CCCCNC(=O)Cn1cnc2sc(C)c(S(=O)(=O)N3CCN(c4ncccn4)CC3)c2c1=O | 6.18
O=C(NCc1ccccc1)C1=C[C@H](c2ccc3c(c2)OCO3)C[C@H](OCCCCO)O1 | -27.6
Cc1ccc(S(=O)(=O)NC(CC(=O)n2nc(C)cc2C)c2ccccc2)cc1 (centres unmarked) | -0.931
O=C(CO/N=C/c1ccccc1OC(F)F)NC1CCCCC1 | -19.5

Structure (SMILES) | hERG current change (%, negative = inhibition) at 10uM [%]
CC(=O)N1c2ccc(S(=O)(=O)N3CCC(C(=O)Nc4cccc(Cl)c4)CC3)cc2CC1C (centres unmarked) | 15.1
CCCOC(=O)COc1cc(C)cc2oc(=O)c3c(c12)CCC3 | 6.32
O=C(CCNS(=O)(=O)c1ccccc1C(F)(F)F)N1CCN(S(=O)(=O)c2cccc(Cl)c2)CC1 | -7.8
Cc1ccc(-c2noc(CCC(=O)NCCCN3CCN(c4cccc(Cl)c4)CC3)n2)cc1 | 2.45
O=C(Cc1ccc(F)cc1)N/N=C/c1ccc(-c2ccc(Cl)c(C(=O)O)c2)o1 | 29.7
O=C(CCN1CCN(C/C=C/c2ccccc2)CC1)Nc1ccccc1 | -74.9
COCCN=C1OC(=O)N2C(=O)C3=C4[C@@H](C[C@H]5C(=O)N(c6ccccc6)C(=O)[C@H]5[C@H]4[C@@]12Cc1ccccc1)[C@H]1C(=O)N(c2ccccc2)C(=O)[C@H]1[C@H]3C | 6.81
Cn1cccc1C(=O)C(=O)Nc1ccc(F)c(F)c1 | 15.9
Cc1ccc(C(=O)N2CC(=O)Nc3ccc(F)cc3C2c2ccccc2)cc1 (centres unmarked) | -4.56
COc1ccccc1NS(=O)(=O)c1cccc(NC(=S)NCCN2CCOCC2)c1 | -7.65
COC(=O)C(CCSC)NC(=O)c1cc2c(n(-c3ccc(C)cc3)c1=O)CCCC2=O (centres unmarked) | 1.53
CC(=O)Nc1ccc2c(c1)C(=O)N(c1ccc(C)cc1)C2=O | 0.928
Cc1cc(OCC(=O)NNC(=S)NC(=O)c2cccs2)ccc1Cl | 15
Cc1c(Cl)c(C(=O)NNC(=S)NCc2ccco2)nn1C | -1.46
CCc1nnc(NC(=O)CSc2nc(C)cs2)s1 | 25
Cc1ccc(C(=O)N2CCN(c3ncnc4c(-c5ccccc5)nsc34)CC2)cc1 | 18.1
CCc1c(C(=O)NC(C)C2CCCO2)csc1C (centres unmarked) | -2.12
CCc1nnc(NC(=O)CSc2nnc(CNC(=O)c3cc(OC)c(OC)c(OC)c3)o2)s1 | 27.5
Cc1cc2ncn(C(=O)c3ccc(F)cc3)c2cc1C | 10.7
O=C(O)c1ccc(N/N=C/C(Br)=C/c2ccccc2)cc1 | 13.7
CCOc1ccccc1NC(=O)c1ccccc1N(C)S(=O)(=O)c1ccc(C)cc1 | -1.09
O=C(Nc1ccc(F)cc1)C1CCCN(c2cnccn2)C1 (centres unmarked) | -11.9
Cc1cc(Oc2ccc(C)c(Cl)c2)nc(SCC(=O)c2ccccc2)n1 | 10.1

Structure (SMILES) | hERG current change (%, negative = inhibition) at 10uM [%]
COc1ccc2c(c1OC)C(=O)N(c1cccc(/C=C/C(=O)O)c1)C2 | 29
Cc1ccc(C)c(C(=O)OCC(=O)Nc2ccc(N3CCOCC3)cc2)c1 | 0.591
Oc1ccc(N2CCN(CC(O)c3ccccc3)CC2)cc1 (centres unmarked) | 10.4
O=C(Nc1cccc2cccnc12)c1ccccc1Cl | -14.5
COc1ccc(N2CCN(/C(=N\S(=O)(=O)c3ccc(C)cc3)Nc3nc(C)cc(C)n3)CC2)cc1 | -15.3
Cc1cc(C)nc(Nc2n[nH]c(-c3ccccc3Br)n2)n1 | 7.5
COc1cc(CCCN2C(=O)C(=O)NC[C@@H]2C(C)O)cc(OC)c1OC (some centres unmarked) | -5.41
CCOC(=O)/C(C#N)=C\c1ccc(N2CCN(C/C=C/c3ccccc3)CC2)cc1 | -12.1
CCC1=NN2C(=N)/C(=C\c3ccc(OCCOc4ccccc4OC)cc3)C(=O)N=C2S1 | 12.6
CCC(=O)c1ccc(OCC(=O)N2CCN(c3ccccn3)CC2)cc1 | -31.5
COc1ccc(C(C(=O)NC2CCCC2)N(C(=O)Cc2cccs2)C2CC2)cc1OC (centres unmarked) | -0.77
CCc1cc(=O)[nH]c(SCC(=O)N2CCOCC2)n1 | -8.36
CC1CCC2(CC1)NC(=O)N(CC(=O)N1CCN(c3ccccc3)CC1)C2=O (centres unmarked) | 7.72
C=CCc1cc(/C=N/NC(=O)CSc2nnc(CCCc3ccc(OC)cc3)o2)cc(OC)c1O | 16.7
CCc1nc(N)c(C#N)c(-c2cccn2C)c1C | 13.3
O=C(Nc1nccs1)C(NS(=O)(=O)c1ccc(Br)s1)c1ccccc1 (centres unmarked) | -3.89
CCCCSc1nnc([C@H](C)NC(=O)OC(C)(C)C)o1 | 12.5
COC(=O)C(C)n1nc(C)n(-c2ccc(C)cc2)c1=O (centres unmarked) | -5.27
O=S(=O)(c1ccccc1)N1N=C(c2ccccc2)CC1c1ccccc1F (centres unmarked) | 6.73
CCCOc1c(OC)cccc1C1CC(=O)Nc2cc3c(cc21)OCCO3 (centres unmarked) | -1.64

Source: paper PMC4336329 (PLoS ONE, 2015)
